# Reference: the supplement of paper PMC3334620
# Over roughly 33,000 sequences, “E-score (-0.5 to 0.5)” has its median near -0.04; the highest 2% begin near 0.36. The list shows a part of the results.
# Target: T1, Hmlalpha2 (UniProt P0CY09)
# T1 sequence: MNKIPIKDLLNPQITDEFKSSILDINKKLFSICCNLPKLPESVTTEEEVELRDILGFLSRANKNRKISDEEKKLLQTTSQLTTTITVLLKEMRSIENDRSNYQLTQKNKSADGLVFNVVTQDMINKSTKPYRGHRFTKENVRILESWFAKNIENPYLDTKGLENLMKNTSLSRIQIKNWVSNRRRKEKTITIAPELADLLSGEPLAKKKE
# Assay: PBM E-score (8-mer binding enrichment) (E-score (-0.5 to 0.5)); higher = stronger / more preferred TF binding; most listed sequences are background and not binding sites
# Conditions: protein concentration: 200 nM; construct: GST-full length
# Description: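 Universal 'all 10-mer' protein binding microarrays (Agilent AMADID 015681) probed with GST-tagged S. cerevisiae TFs (full-length or DBD) made by in vitro transcription/translation (PURExpress), about 100-200 nM. Bound TF was detected with fluorescent anti-GST. Each ungapped 8-mer (which stands for itself and its reverse complement) is scored by the PBM enrichment score (E-score), a modified Wilcoxon-Mann-Whitney statistic from -0.5 to +0.5, computed with the Universal PBM Analysis Suite. Scale: above 0.35 generally sequence-specific binding.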
row,Sequence,PBM E-score
1,TTAGGGAA,0.103
2,ATGAAAGC,0.00359
3,CCTCGATA,0.0689
4,AGTCTGGA,-0.0416
5,AACAAACG,0.194
6,GCTTCCTA,0.0616
7,ACGTGCCC,0.123
8,GACTGCCA,-0.119
9,GCCGCCCA,-0.173
10,AATGAAGG,-0.08
11,ACGCACAA,0.151
12,AGTCAAAG,-0.0785
13,CACGCCTA,0.137
14,CCTAGAGC,-0.169
15,CGGATTAC,0.258
16,CGTTGGAG,0.0203
17,GTTTCACA,0.244
18,GGCTTTCA,-0.162
19,CAGATTTC,-0.132
20,ACAGTTTA,0.182
21,GAGCACCC,-0.38
22,CAAGTCAC,-0.163
23,GGGGATAC,-0.165
24,CGCAACGC,0.0833
25,GCGCACAC,-0.189

row,Sequence,PBM E-score
1,GTCAGGGA,-0.256
2,TACGGATA,0.0901
3,GCTCGGTA,-0.14
4,AGCATAAC,0.0468
5,ATTGACTC,-0.122
6,ATGTTCGA,0.191
7,AGATACGC,-0.00425
8,ACGTCCTC,-0.162
9,CAAAATAA,0.146
10,ATCTGAGA,-0.228
11,CACATATC,0.0564
12,ATTCTACC,0.209
13,GATGACCA,0.0315
14,CGACTGGC,-0.256
15,ATACAAGC,0.308
16,ACTTTATA,0.0554
17,CTGTTGAC,0.156
18,CAGGGTGG,-0.252
19,ACATGTGA,0.277
20,AATACACC,0.307
21,CGACCTAG,-0.101
22,GATCATAC,0.0883
23,AGGAATGG,-0.133
24,AGACTTCC,-0.3
25,CTTTGTCA,0.172

row,Sequence,PBM E-score
1,ACCGCAAG,-0.115
2,GCGCTTCC,-0.0816
3,GCTTGAAA,0.0512
4,ATAACGTC,0.155
5,TCGCTTCA,-0.0525
6,GCCCCAAA,-0.0423
7,GGCAGACA,-0.238
8,AAGTGGGT,-0.117
9,AAGCGCGT,0.206
10,ACATTCGC,0.103
11,AAGAGTAG,-0.0535
12,ACCAACGT,0.113
13,TGAGGAAA,0.0422
14,CGTGAAGC,-0.21
15,ACGGCTAC,0.0889
16,CCGGACCC,-0.205
17,CAGTTAAG,0.155
18,AAGGACGC,-0.164
19,ATGAAAAA,0.122
20,ACCGGTCT,-0.25
21,AGTTTCAG,-0.0712
22,GACAACGA,0.108
23,GAGATGCC,-0.112
24,ATCAATAC,0.226
25,TAGGTCGA,0.0154

row,Sequence,PBM E-score
1,CCCTTATC,-0.0289
2,CTGTGAAC,-0.0038
3,GGCCCCTA,-0.258
4,CTTTAGCC,-0.0346
5,CATCGTGA,-0.152
6,ATAGTGGA,0.0705
7,CGTTCGTC,0.165
8,ATACAACA,0.355
9,GTAGGCTA,0.0655
10,AGAGCTCC,-0.252
11,ACAAACGG,0.0598
12,ATCGGCAG,-0.121
13,ACTCACTA,0.105
14,GAGATAAC,0.197
15,GTAGATCA,0.189
16,GTAAGTAA,0.2
17,CGAGTAGC,-0.00175
18,ATACAGAC,0.124
19,ATAGAGAC,-0.214
20,CTTATTCC,-0.177
21,AGCTTCAC,0.0362
22,CGGCGACC,-0.348
23,TACCTGGA,-0.0428
24,AAAAGATC,-0.101
25,TGAAGTAA,0.0779

row,Sequence,PBM E-score
1,GAGCTCCC,-0.322
2,ACTTAACC,0.199
3,AGCGCCAC,-0.225
4,ATCAGGAG,-0.118
5,ACGCGCTC,0.199
6,GTAATCTA,0.346
7,CACCATGG,-0.125
8,ATCTACAA,0.307
9,ACATGCGC,0.308
10,AAGGGGAC,-0.0926
11,TGCTATAA,-0.0105
12,AATAAATT,0.198
13,ATAGTGAG,-0.0515
14,AAGTGGAC,-0.184
15,CACATGCA,0.234
16,CCCTGTCG,-0.129
17,ATCAGGTA,0.0961
18,AGCCTAAA,-0.0705
19,ACTAAAAT,0.136
20,TCGGACGA,-0.0603
21,AGCAACTG,-0.138
22,CTATTCCA,0.0558
23,ATGCGGCG,-0.153
24,AATCCAGA,0.00071
25,GTCCTGAA,-0.158

row,Sequence,PBM E-score
1,CTGGACAC,-0.109
2,AACATTCT,0.285
3,AAACTGTT,0.12
4,AACTCGTG,0.0963
5,CAGAAGAA,-0.252
6,AGCCCGGG,-0.17
7,AGGATCAT,0.0783
8,AATCGCCC,-0.35
9,GCGGGGTA,-0.232
10,GGTGAGGA,-0.231
11,TACAATGA,0.18
12,CTAAATAA,0.309
13,GCAATCAA,0.0206
14,CCGCGACA,-0.0213
15,ATTACCCC,-0.0121
16,TAGCAAGA,0.133
17,ATTTGGAC,0.0778
18,GCTACTAC,0.0679
19,CGGTCATA,-0.265
20,AAGCACGT,0.211
21,GGTAGGAC,-0.248
22,AGGTCACG,-0.118
23,ATAGCGGC,-0.154
24,ATATTAGC,0.00321
25,AATGACAC,0.216

row,Sequence,PBM E-score
1,CCTAGCAC,0.0129
2,CCGGACAG,-0.198
3,CATAGAGA,0.0234
4,CAATTACA,0.445
5,ACCACCGC,-0.173
6,AGACGCTA,-0.0807
7,AATGGCAA,-0.00778
8,CCCGGAAG,-0.263
9,CCCGCCTC,-0.115
10,ACTATAGC,-0.0718
11,ACGTTCAC,0.136
12,CTGTACAC,0.291
13,CGGAAATC,-0.192
14,CTCGACGC,0.12
15,TAAGATTA,0.0218
16,CCAGATGG,-0.196
17,CCATCTAC,0.0186
18,CGCAAAGA,0.0517
19,ATTAATGC,0.035
20,ACCCGCTC,-0.247
21,GAATGCAC,0.0794
22,CACAAGAG,0.034
